Screen size: about 380,000 compounds; about 4,000 (1.1%) were called active. Inconclusive results, whose numbers are uncertain, are shown with a selection of clear calls. Calls come from the whole dose curve; as a rule, active = well fitted activation curve with a large enough effect; inconclusive = small, poorly fitted or top-dose-only effect; inactive = no such curve, though single readings can be large or run the other way. A potency beside an inconclusive call is a rough fit, not a confirmed value.
assay: qHTS Assay to Identify Small Molecule Activators of BRCA1 Expression; conditions: MCF7-BRCA1-FFLuc reporter, luminescence, 48 h; activation: at 46.1 µM (top of the series), scaled: vehicle 0%, 10 µM genistein 100% unless noted; note: nearly all actives have a fitted effect of over 80% in size
Outline: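 Activators of BRCA1 expression were detected as increased firefly luciferase luminescence in engineered MCF7 cells after 48 h compound incubation. Signals were scaled to genistein 10 microM as full activation.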
Potency is the fitted concentration of half-maximal effect; tags give direction and shape of the fitted curve.

Compound | Potency | activation
CSc1nc2ccc(NC(=O)c3ccc(Cl)s3)cc2s1 | inconclusive: 2.51 µM [activator, partial curve, poor fit] | 
CC(=O)c1cc(C#N)c(SCc2ccccn2)nc1C | inconclusive: 6.31 µM [activator, partial curve, poor fit] | 
Brc1cccc(-c2nnc(-c3ccccc3)o2)c1 | inconclusive: 2 µM [activator, partial curve, poor fit] | 
O=C(Nc1cc(-c2ccccc2)[nH]n1)c1ccccc1F | inconclusive: 1.58 µM [activator, full curve, poor fit] | 
Cc1ccccc1C(=O)Nc1cccc(C(=O)Nc2ccccc2C(=O)O)c1 |  | inactive: -2.36%
c1ccc2c(c1)NC(c1ccncc1)n1c-2nc2ccccc21 (stereo unspecified) | inconclusive: 20 µM [activator, single point] | 
CN(C(=O)c1ccc2c(Cl)c3c(nc2c1)CCC3)c1ccccc1F | inconclusive: 3.55 µM [activator, partial curve, poor fit] | 
Cc1csc2nc(-c3ccc(NS(=O)(=O)c4cc(F)ccc4F)cc3)cn12 |  | inactive: 2.98%
Cc1ccc(Cc2cn3cc(-c4ccc(F)cc4)nc3s2)cc1 | active: 2.24 µM | 
O=C(CSc1nc2cc(Cl)ccc2o1)N1CCOCC1 |  | inactive: 40.4%
O=C(CSc1nnc(-c2ccc(C(F)(F)F)cn2)o1)Nc1ccccc1Cl | inconclusive: 10 µM [activator, partial curve, poor fit] | 
Cc1ccc(NC(=S)/C(C#N)=C2/Nc3ccccc3S2)cc1 |  | inactive: -84.5%
Cc1cccc(-n2ncc3c(NC(C)C)ncnc32)c1 | inconclusive: 1.58 µM [activator, partial curve, poor fit] | 
CC(C)C(=O)Nc1cccc(-c2cnc3ccccc3n2)c1 | active: 11.2 µM | 
O=C(Nc1cccc2cccnc12)c1cccc([N+](=O)[O-])c1 | inconclusive: 12.6 µM [activator, partial curve, poor fit] | 
COc1ccc(-c2cc3cc4c(cc3cn2)OCO4)cc1 | inconclusive: 0.501 µM [activator, full curve, poor fit] | 
COc1ccc2nc(NC(=O)c3ccc4ncsc4c3)sc2c1 | inconclusive: 1.26 µM [activator, full curve, poor fit] | 
O=C(NCCc1ccc([N+](=O)[O-])cc1)c1ccccc1 |  | inactive: 40.3%
O=C(Nc1cccc([N+](=O)[O-])c1)c1ccc2c(c1)OCCO2 | active: 12.6 µM | 
COc1cccc(-c2ccc(-c3noc(-c4ccccc4F)n3)c(OC)n2)c1 | active: 10 µM | 
Fc1ccccc1COc1cccc2cccnc12 | active: 7.94 µM | 

Reference: PubChem BioAssay AID624202 (National Center for Advancing Translational Sciences (NCATS), 2012)
